Measurements: US20110236504A1, “VERSATILE DISINFECTANT” (priority 2008, published 2011)

Test system: Staphylococcus aureus 209P and Escherichia coli 0-157 (mean values)
Assay: Death rate over time, metal ion in purified water
Format: cell-based

O=[N+]([O-])[O-].[Ag+] [Ag^+, AgNO3]
Death rate (0.01 ppm, 1 min): 0%
Death rate (0.01 ppm, 3 min): 0%
Death rate (0.01 ppm, 5 min): 0%
Death rate (0.01 ppm, 10 min): 15%
Death rate (0.01 ppm, 15 min): 35%
Death rate (0.01 ppm, 30 min): 70%
Death rate (0.01 ppm, 60 min): 100%
Death rate (0.1 ppm, 1 min): 0%
Death rate (0.1 ppm, 3 min): 0%
Death rate (0.1 ppm, 5 min): 0%
Death rate (0.1 ppm, 10 min): 30%
Death rate (0.1 ppm, 15 min): 50%
Death rate (0.1 ppm, 30 min): 85%
Death rate (0.1 ppm, 60 min): 100%
Death rate (3 ppm, 1 min): 0%
Death rate (3 ppm, 3 min): 10%
Death rate (3 ppm, 5 min): 20%
Death rate (3 ppm, 10 min): 40%
Death rate (3 ppm, 15 min): 80%
Death rate (3 ppm, 30 min): 100%
Death rate (10 ppm, 1 min): 0%
Death rate (10 ppm, 3 min): 25%
Death rate (10 ppm, 5 min): 35%
Death rate (10 ppm, 10 min): 50%
Death rate (10 ppm, 15 min): 100%

O.O.O.O.O.O.[Cl-].[Cl-].[Co+2] [Co^2+, CoCl2•6H2O]
Death rate (100 ppm, 1 min): 0%
Death rate (100 ppm, 3 min): 0%
Death rate (100 ppm, 5 min): 0%
Death rate (100 ppm, 10 min): 0%
Death rate (100 ppm, 15 min): 5%
Death rate (100 ppm, 30 min): 10%
Death rate (100 ppm, 60 min): 20%
Death rate (100 ppm, 90 min): 30%
Death rate (100 ppm, 120 min): 75%
Death rate (200 ppm, 1 min): 0%
Death rate (200 ppm, 3 min): 0%
Death rate (200 ppm, 5 min): 0%
Death rate (200 ppm, 10 min): 5%
Death rate (200 ppm, 15 min): 10%
Death rate (200 ppm, 30 min): 15%
Death rate (200 ppm, 60 min): 25%
Death rate (200 ppm, 90 min): 45%
Death rate (200 ppm, 120 min): 85%
Death rate (350 ppm, 1 min): 0%
Death rate (350 ppm, 3 min): 0%
Death rate (350 ppm, 5 min): 0%
Death rate (350 ppm, 10 min): 10%
Death rate (350 ppm, 15 min): 20%
Death rate (350 ppm, 30 min): 25%
Death rate (350 ppm, 60 min): 50%
Death rate (350 ppm, 90 min): 65%
Death rate (350 ppm, 120 min): 100%
Death rate (500 ppm, 1 min): 0%
Death rate (500 ppm, 3 min): 0%
Death rate (500 ppm, 5 min): 0%
Death rate (500 ppm, 10 min): 15%
Death rate (500 ppm, 15 min): 20%
Death rate (500 ppm, 30 min): 50%
Death rate (500 ppm, 60 min): 70%
Death rate (500 ppm, 90 min): 100%

O.O.O.O.O.O=S(=O)([O-])[O-].[Cu+2] [Cu^2+, CuSO4•5H2O]
Death rate (2 ppm, 1 min): 0%
Death rate (2 ppm, 3 min): 0%
Death rate (2 ppm, 5 min): 5%
Death rate (2 ppm, 10 min): 10%
Death rate (2 ppm, 15 min): 20%
Death rate (2 ppm, 30 min): 35%
Death rate (2 ppm, 60 min): 50%
Death rate (2 ppm, 90 min): 60%
Death rate (2 ppm, 120 min): 85%
Death rate (20 ppm, 1 min): 0%
Death rate (20 ppm, 3 min): 0%
Death rate (20 ppm, 5 min): 10%
Death rate (20 ppm, 10 min): 20%
Death rate (20 ppm, 15 min): 35%
Death rate (20 ppm, 30 min): 50%
Death rate (20 ppm, 60 min): 70%
Death rate (20 ppm, 90 min): 85%
Death rate (20 ppm, 120 min): 100%
Death rate (50 ppm, 1 min): 0%
Death rate (50 ppm, 3 min): 0%
Death rate (50 ppm, 5 min): 10%
Death rate (50 ppm, 10 min): 30%
Death rate (50 ppm, 15 min): 50%
Death rate (50 ppm, 30 min): 70%
Death rate (50 ppm, 60 min): 90%
Death rate (50 ppm, 90 min): 100%
Death rate (200 ppm, 1 min): 0%
Death rate (200 ppm, 3 min): 10%
Death rate (200 ppm, 5 min): 15%
Death rate (200 ppm, 10 min): 40%
Death rate (200 ppm, 15 min): 60%
Death rate (200 ppm, 30 min): 80%
Death rate (200 ppm, 60 min): 100%

O.O.O.O.O.O.O.O=S(=O)([O-])[O-].[Ni+2] [Ni^2+, NiSO4•7H2O]
Death rate (10 ppm, 1 min): 0%
Death rate (10 ppm, 3 min): 0%
Death rate (10 ppm, 5 min): 0%
Death rate (10 ppm, 10 min): 5%
Death rate (10 ppm, 15 min): 10%
Death rate (10 ppm, 30 min): 15%
Death rate (10 ppm, 60 min): 20%
Death rate (10 ppm, 90 min): 30%
Death rate (10 ppm, 120 min): 60%
Death rate (50 ppm, 1 min): 0%
Death rate (50 ppm, 3 min): 0%
Death rate (50 ppm, 5 min): 0%
Death rate (50 ppm, 10 min): 5%
Death rate (50 ppm, 15 min): 15%
Death rate (50 ppm, 30 min): 25%
Death rate (50 ppm, 60 min): 35%
Death rate (50 ppm, 90 min): 50%
Death rate (50 ppm, 120 min): 70%
Death rate (150 ppm, 1 min): 0%
Death rate (150 ppm, 3 min): 0%
Death rate (150 ppm, 5 min): 5%
Death rate (150 ppm, 10 min): 10%
Death rate (150 ppm, 15 min): 25%
Death rate (150 ppm, 30 min): 35%
Death rate (150 ppm, 60 min): 50%
Death rate (150 ppm, 90 min): 70%
Death rate (150 ppm, 120 min): 90%
Death rate (300 ppm, 1 min): 0%
Death rate (300 ppm, 3 min): 0%
Death rate (300 ppm, 5 min): 10%
Death rate (300 ppm, 10 min): 15%
Death rate (300 ppm, 15 min): 40%
Death rate (300 ppm, 30 min): 50%
Death rate (300 ppm, 60 min): 75%
Death rate (300 ppm, 90 min): 90%
Death rate (300 ppm, 120 min): 100%

O.O.O.O.O.O.O.O=S(=O)([O-])[O-].[Zn+2] [Zn^2+, ZnSO4•7H2O]
Death rate (5 ppm, 1 min): 0%
Death rate (5 ppm, 3 min): 0%
Death rate (5 ppm, 5 min): 0%
Death rate (5 ppm, 10 min): 5%
Death rate (5 ppm, 15 min): 10%
Death rate (5 ppm, 30 min): 15%
Death rate (5 ppm, 60 min): 25%
Death rate (5 ppm, 90 min): 50%
Death rate (5 ppm, 120 min): 80%
Death rate (12 ppm, 1 min): 0%
Death rate (12 ppm, 3 min): 0%
Death rate (12 ppm, 5 min): 5%
Death rate (12 ppm, 10 min): 10%
Death rate (12 ppm, 15 min): 20%
Death rate (12 ppm, 30 min): 25%
Death rate (12 ppm, 60 min): 40%
Death rate (12 ppm, 90 min): 65%
Death rate (12 ppm, 120 min): 90%
Death rate (100 ppm, 1 min): 0%
Death rate (100 ppm, 3 min): 0%
Death rate (100 ppm, 5 min): 5%
Death rate (100 ppm, 10 min): 20%
Death rate (100 ppm, 15 min): 30%
Death rate (100 ppm, 30 min): 40%
Death rate (100 ppm, 60 min): 60%
Death rate (100 ppm, 90 min): 80%
Death rate (100 ppm, 120 min): 100%
Death rate (500 ppm, 1 min): 0%
Death rate (500 ppm, 3 min): 0%
Death rate (500 ppm, 5 min): 10%
Death rate (500 ppm, 10 min): 25%
Death rate (500 ppm, 15 min): 50%
Death rate (500 ppm, 30 min): 65%
Death rate (500 ppm, 60 min): 100%
